Reference: article PMC4336329 (PLoS ONE, 2015)
The campaign covered roughly 310,000 compounds. About 14,000 (4.5%) showed an effect of 50% or more. The effect is printed as a negative number. This is one part of the list.

biological target: human ether-à-go-go-related gene (hERG) potassium channel (human, UniProt Q12809); experiment: primary screen, population patch clamp on CHO cells stably expressing hERG
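Also: peak tail current of the secondary pulse compared with the same well before compound.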

human ether-à-go-go-related gene (hERG) potassium channel, sequence (Q12809 whole entry, looked up): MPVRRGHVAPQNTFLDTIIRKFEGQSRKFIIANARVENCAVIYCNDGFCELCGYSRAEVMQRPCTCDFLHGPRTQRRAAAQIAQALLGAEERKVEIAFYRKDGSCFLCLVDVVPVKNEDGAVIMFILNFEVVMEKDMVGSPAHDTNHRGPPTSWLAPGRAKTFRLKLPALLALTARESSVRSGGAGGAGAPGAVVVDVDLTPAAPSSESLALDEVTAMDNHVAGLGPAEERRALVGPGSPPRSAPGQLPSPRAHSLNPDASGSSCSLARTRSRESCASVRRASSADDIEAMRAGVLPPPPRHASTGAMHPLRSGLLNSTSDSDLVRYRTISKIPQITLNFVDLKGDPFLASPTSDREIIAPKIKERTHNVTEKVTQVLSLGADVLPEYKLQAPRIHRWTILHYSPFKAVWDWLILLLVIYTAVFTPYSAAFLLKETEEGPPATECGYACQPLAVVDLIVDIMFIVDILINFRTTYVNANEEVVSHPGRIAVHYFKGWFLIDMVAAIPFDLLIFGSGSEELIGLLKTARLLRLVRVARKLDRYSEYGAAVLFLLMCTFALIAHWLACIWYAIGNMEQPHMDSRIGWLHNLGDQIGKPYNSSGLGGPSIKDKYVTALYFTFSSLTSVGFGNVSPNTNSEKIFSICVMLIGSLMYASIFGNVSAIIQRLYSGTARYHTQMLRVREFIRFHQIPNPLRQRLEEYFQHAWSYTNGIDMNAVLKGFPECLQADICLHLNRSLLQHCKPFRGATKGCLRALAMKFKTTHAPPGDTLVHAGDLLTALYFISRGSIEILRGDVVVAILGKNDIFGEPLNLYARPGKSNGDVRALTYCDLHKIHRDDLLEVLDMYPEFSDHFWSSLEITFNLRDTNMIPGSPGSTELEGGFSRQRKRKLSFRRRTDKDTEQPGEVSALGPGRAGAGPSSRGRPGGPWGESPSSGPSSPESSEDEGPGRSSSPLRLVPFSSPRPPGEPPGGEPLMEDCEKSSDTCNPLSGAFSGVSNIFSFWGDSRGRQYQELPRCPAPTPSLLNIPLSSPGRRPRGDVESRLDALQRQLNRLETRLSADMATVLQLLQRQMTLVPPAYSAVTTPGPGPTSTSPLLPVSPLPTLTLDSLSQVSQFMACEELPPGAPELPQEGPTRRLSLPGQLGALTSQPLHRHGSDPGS

| SMILES | hERG current change (%, negative = inhibition) at 10uM [%] |
| --- | --- |
| CCc1nnc(NC(=O)C2Cc3ccccc3CN2S(=O)(=O)c2ccc(C)cc2)s1 (centres unmarked) | 15.6 |
| C/C(=N\NC(=O)c1ccc(CSc2nc(C)cc(C)n2)cc1)c1ccco1 | -27.9 |
| O=C(Nc1ccccc1Cl)N1C2CCC1CC(O)(c1cccnc1)C2 (centres unmarked) | -7.5 |
| O=C1N=c2ccccc2=C1c1sc(NS(=O)(=O)c2ccccc2)nc1O | 29.1 |
| CN(C)S(=O)(=O)c1cccc(C(=O)NC2CCCc3ccccc32)c1 (centres unmarked) | -7.65 |
| COc1ccc(C=C(C#N)C#N)c(CSc2ccccn2)c1 | 1.19 |
| O=C(Nc1ccccc1)Nc1ccccn1 | 11.2 |
| CSc1nsc(SCC(=O)NCc2ccc(C)cc2)n1 | 10.1 |
| Cc1cc(C)cc(OCC(=O)OCC(=O)NCc2cccs2)c1 | 16.4 |
| COC(=O)C1=C(NC(=O)COc2ccc(Cl)cc2Cl)CCS1 | 22.9 |
| CCc1ccc(NC2=NCC(=O)N2c2ccc3c(c2)OCCO3)cc1 | -2.28 |
| Cc1cc(C)c2c(N=CN(C)C)c(C(=O)N3CCN(c4ncccn4)CC3)sc2n1 | -3.81 |
| CC12CCC(C(=O)Nc3ccc(Cl)cc3)([C@H](Br)C1=O)C2(C)C (some centres unmarked) | -25.6 |
| CC(C)OC(=O)c1ccc(S(N)(=O)=O)o1 | 7.2 |
| CCOc1ccc(S(=O)(=O)N2CCN=C2c2ccccc2)c(C)c1C | -6.37 |
| Cc1ccc(NC(=O)CSc2nnc3c(n2)[nH]c2ccccc23)cc1 | 4.82 |
| O=C(NC1CCCCC1)C(=O)c1c(-c2ccccc2)[nH]c2ccccc12 | -1.09 |
| O=C(Nc1ccccc1Cl)N1CCN(c2ccc3nncn3n2)CC1 | -23.2 |
| O=C(Nc1ccc(N2CCOCC2)cc1)C1CC1 | 6.7 |
| CNc1ccccc1C(C)(C)c1cc(-c2cccc(OC)c2)no1 | -24.6 |
| Clc1ccc(Sc2cc(N3CCOCC3)nc(-c3ccccc3)n2)cc1 | 8.59 |
| Cc1nc([N+](=O)[O-])cn1-c1ccc(N)cc1 | 10.3 |
| CC1CCCN(c2ccc(C(=O)OCC(=O)N3c4ccccc4Sc4ccccc43)cc2[N+](=O)[O-])C1 (centres unmarked) | 1.14 |

| SMILES | hERG current change (%, negative = inhibition) at 10uM [%] |
| --- | --- |
| CC(=O)Oc1ccc(C(=O)NCc2ccc3c(c2)OCO3)cc1 | -23.4 |
| COCCn1c(SC(C)C(=O)Nc2ccc(N3CCOCC3)cc2)nnc1-c1ccncc1 (centres unmarked) | -8.54 |
| O=C(COC(=O)c1ccc(S(=O)(=O)N2CCCC2)cc1)Nc1cccc(Cl)c1 | 1.38 |
| C/C(CC(=O)Nc1ccc(Cl)cc1C(F)(F)F)=N\NC(N)=S | 10.7 |
| O=C(O)CSc1nnc(COc2ccc(Br)cc2)n1-c1ccccc1 | 15 |
| CCN(CC)C(=O)c1nc[nH]c1C(=O)N(C)Cc1ccccc1 | 14.1 |
| COc1ccc(NC(=O)CNC(=O)C2CCCCC2)cc1 | 18.1 |
| CC1(c2ccccc2)NC(=O)N(CC(=O)NC(=O)NCc2ccco2)C1=O (centres unmarked) | 13.9 |
| CCOP(=O)(Cc1ccc(C(C)(C)CC(C)=O)o1)OCC | 5.35 |
| Cc1ccc(S(=O)(=O)Nc2c(C)n(C)n(-c3ccccc3)c2=O)cc1 | 9.73 |
| COc1cc(/C=N/NC(=S)N/N=C/c2cc(OC)c(OC)c(OC)c2)cc(OC)c1OC | 17.6 |
| Nc1cccc(CP(=O)(c2ccccc2)c2ccccc2)c1 | 14.6 |
| C=CCc1cccc2cc(NC(C)=O)c(=O)oc12 | -10 |
| CCCSC(=S)c1c(C)[nH]n(-c2ccccc2)c1=O | 16.5 |
| CN(C)/C(CN1CCN(C=O)CC1)=C1\N=C(c2ccccc2)OC1=O | -40.9 |
| Cc1ccc(OCc2cc(C(=O)NC(C)Cc3cccnc3)no2)cc1C (centres unmarked) | -91 |
| C/C=C/Cn1cccc(C(=O)Nc2ccc(OC)cc2)c1=O | -11.6 |
| C=CCNC(=O)NC(=O)COC(=O)COc1ccc(Br)cc1F | -4.28 |
| CC1(C)Cc2ccccc2-c2[nH]c(=S)[nH]c(=O)c21 | 12.5 |
| C=C(C)CSC1=C(C#N)C(c2ccsc2)CC(=O)N1 (centres unmarked) | -12.9 |
| CCOc1ccc(S(=O)(=O)NCCC(=O)Nc2ncccc2C)cc1 | 6.56 |
| Cc1csc(N)n1 | 7.04 |
| Fc1ccc(-n2cc(CNCCc3ccncc3)c(-c3ccccc3Cl)n2)cc1 | -75.2 |

| SMILES | hERG current change (%, negative = inhibition) at 10uM [%] |
| --- | --- |
| Cn1c(SCC#N)nc2ccccc2c1=O | -6.78 |
| N/C(=N\OC(=O)CCC1CCCC1)c1ccc(Cl)cc1 | 12.2 |
| COc1ccccc1CNC(=O)/C=C/c1ccc(S(=O)(=O)N2CCOCC2)cc1 | 0.0361 |
| O=c1c(Oc2ccccc2Br)c(C(F)(F)F)oc2c(CN3CCCC3)c(O)ccc12 | -9.81 |
| CCN(CC)c1ccc(/C=C2\C(=O)NC(=O)N(CC3CCCO3)C2=O)cc1 (centres unmarked) | 8.11 |
| Cc1nc(SCc2ccccc2C)n[nH]1 | 8.26 |
| CC(C)CN(C(=O)COC(=O)c1cc2c(s1)CCC2)C1CCS(=O)(=O)C1 (centres unmarked) | 8.4 |
| COC(=O)c1cc2ccsc2n1CC(=O)Nc1cc(C)cc(C)c1 | 5.43 |
| Cc1cc(OC(=O)c2c(C)cc(OC(=O)c3c(C)cc(O)cc3O)cc2O)cc(O)c1C(=O)O | 5.56 |
| CC(C(=O)NCc1ccco1)n1ccc2cc(S(=O)(=O)N3CCCC3)ccc21 (centres unmarked) | 3.75 |
| COc1ccc(OC)c2c1CCC1NCCOC21.Cl (centres unmarked) | 10.9 |
| Cc1nc2nc(-c3cccnc3)[nH]n2c(=O)c1Cc1ccccc1 | -19.5 |
| COc1cc(NC(=O)C2=CC(c3ccc(C)cc3)=NS(=O)(=O)N2C)cc(OC)c1OC | 2.52 |
| COc1ccc(OC)c(C(=O)COC(=O)CNC(=O)c2ccccc2)c1 | -3.75 |
| Cc1sc(-n2c(C)cc(C=C3C(=O)NC(=O)NC3=O)c2C)c(C#N)c1C | 2.51 |
| Cc1ccc(C(=O)N/C(=C\c2cccs2)C(=O)NC2CCCCC2)cc1 | -47.2 |
| Cc1c(NS(=O)(=O)c2cccc(C(=O)Nc3ccccc3)c2)c(=O)n(-c2ccccc2)n1C | -11 |
| O=C(NC1CCCCCC1)C1CCN(S(=O)(=O)c2cccc3cccnc23)CC1 | -6.36 |
| O=c1[nH]ncc2c3ccccc3n(Cc3ccc(F)cc3)c12 | 5.74 |
| COc1ccc(-c2n[nH]c(=S)n2-c2ccc(C)cc2)cc1OC | 9.48 |
| NC(=O)C1CCN(C(=O)CCC(=O)c2ccc(Br)cc2)CC1 | 5.22 |
| O=C1CC(c2ccc(OCCCCCOc3ccc(C4CC(=O)NC4=O)cc3)cc2)C(=O)N1 (centres unmarked) | 8.33 |
| Cc1ccc(N(C)S(=O)(=O)c2cccc(C(=O)Nc3nc4ccccc4[nH]3)c2)cc1 | 11.6 |

| SMILES | hERG current change (%, negative = inhibition) at 10uM [%] |
| --- | --- |
| CCOC(=O)c1c(NC(=S)Nc2ccc(OCC)cc2)sc2c1CCN(C)C2 | -70.4 |
| CC(Sc1nnc(C2CC2)n1N)C(=O)NC1CCCCC1C (centres unmarked) | 0.167 |
| CC(NC(=O)CCn1nc(-c2ccc(Cl)cc2)ccc1=O)c1ccccc1 (centres unmarked) | -60.6 |
| COC(=O)C1C2c3ccccc3OC1(C)N=c1s/c(=C/c3cnn(C)c3)c(=O)n12 (centres unmarked) | -11.9 |
| Cc1ccc(SCc2cc(=O)[nH]c(N3CCOCC3)n2)cc1 | -0.0128 |
| O=C(CNc1cccc(S(=O)(=O)N2CCCCCC2)c1)Nc1cccc([N+](=O)[O-])c1 | -71.9 |
| CC(=O)CCc1oc2ccc(C)cc2c1-c1ccc(C)o1 | -7.62 |
| CCCn1c(=O)cc(N)n(-c2ccc(OC(F)(F)F)cc2)c1=O | 6.67 |
| CCOC(=O)C1CCN(Cc2ccccc2C(F)(F)F)CC1 | -4.86 |
| CCOC(=O)C1CCCN(C2=NC(=O)/C(=C/c3ccc(N(C)C)cc3)S2)C1 (centres unmarked) | -24.9 |
| CCOC(=O)C1CCN(C(=O)CN(c2ccc(OC)c(OC)c2)S(=O)(=O)c2ccccc2)CC1 | -14.7 |
| O=C(NCCC1=CCCCC1)c1c(O)nc2sccn2c1=O | -23.7 |
| CN1CCC(=NNC(=O)CN(c2cccc(Cl)c2)S(C)(=O)=O)CC1 | 19.7 |
| Cc1cc(C)nc(Sc2ccc(/C=C(\C#N)C(=O)Nc3ccccc3)o2)n1 | 2.31 |
| CCN(CC)S(=O)(=O)c1cccc(NC(=O)CN(C)Cc2cccc(OC)c2)c1.O=C(O)C(=O)O | -37.6 |
| Cc1cc(C)c(C(=O)O)c(CC(C)(C)C(=O)O)c1 | 16.6 |
| COc1ccc(-n2c(Cn3c(=O)sc4ccccc43)nnc2SC)cc1 | -14.2 |
| CN(C)c1ccc(C(=O)Nc2ccc(S(=O)(=O)NC3=NCCCCC3)cc2)cc1 | -5.38 |
| Cc1ccc(N2CC(C(=O)Nc3c(C)n(C)n(-c4ccccc4)c3=O)CC2=O)cc1 (centres unmarked) | 24.4 |
| O=C(C1COc2ccccc2O1)N1CCN(Cc2ccc(Br)cc2F)CC1 (centres unmarked) | -23 |
